# Where “and” joins values, the source holds several entries; their conditions need not be identical. Equal values may be shown once. Screen size: about 420,000 compounds; about 64,000 (15%) were called active. The shares of active, inactive and inconclusive entries below differ from those in the screen. The call rests on the fitted dose curve; in most records, active means well fitted inhibition curve with a large enough effect; inconclusive means small, poorly fitted or top-dose-only effect; inactive means flat fitted curve, though single readings scatter. No potency is given beside an inconclusive call; the fits are too rough.
# Test: qHTS for Inhibitors of human tyrosyl-DNA phosphodiesterase 1 (TDP1): qHTS in cells in absence of CPT; further: nearly all actives have a fitted effect of over 55% in size
# Conditions: DT40 Tdp1-/- hTDP1 cells, no CPT, ATP luminescence, 48 h; activity change, negative = growth inhibition: at 46.2 µM (top of the series) unless noted
# How it was run: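 Chicken DT40 Tdp1-/- cells complemented with human TDP1, screened without camptothecin (DMSO vehicle only), 400 cells/well. Compounds pin-transferred, cells incubated at 37 °C for at least 48 hr. Growth read as ATP-dependent luminescence (CellTiter-Glo, 30 min at RT).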
# On the % scale 0 is the no-effect control and ±100 the full control effect; potency means the concentration at half of the fitted maximal effect; tags describe the fitted curve by direction and shape.
Compound,Potency,"activity change, negative = growth inhibition"
CCN(C(=O)COC(=O)c1cc(C)n(-c2ccc(F)cc2)c1C)C1CCS(=O)(=O)C1 (centres undefined),"inconclusive [inhibitor, single point]",
Cc1cc(C)cc(-n2nnc(-c3nsc(NC(=O)c4ccccc4Cl)n3)c2C)c1,"inconclusive [inhibitor, single point]",
CNC(=S)NNC(=O)c1ccc(=O)n(Cc2cccc(C(F)(F)F)c2)c1,"inconclusive [inhibitor, partial curve, poor fit]",
CCc1ccc(NC(=O)Cn2ncc3c(C)n(Cc4cccc(Cl)c4)c(C)c3c2=O)cc1,"inconclusive [inhibitor, single point]",
C=CCOc1ccc(/C=N/NC(=O)CN2CCOCC2)cc1OCC,"inconclusive [inhibitor, single point]",
COc1cc2c(cc1OC)CN(C(=O)c1sc(-c3cnccn3)nc1C)CC2,,inconclusive: -34.9% [inhibitor]
CC1(C(=O)Nc2cccc(S(=O)(=O)N3CCOCC3)c2)Cc2ccccc2C(=O)O1 (centres undefined),"inconclusive [inhibitor, single point]",
CCOc1ccc(C(=O)CCC(=O)N2CCN(c3ccccc3O)CC2)cc1,"inconclusive [inhibitor, partial curve]",
Cc1ccccc1NC(=O)CC(O)(C(F)(F)F)C(F)(F)F,"inconclusive [inhibitor, single point]",
CNC(=O)COc1ccc(S(=O)(=O)Nc2ccc(C)cc2)cc1,"inconclusive [inhibitor, single point]",
CCN(Cc1cc(=O)oc2cc(C)ccc12)c1ccccc1,"inconclusive [inhibitor, single point]",
O=C(O)c1cc(-c2ccco2)nc2ccc(Br)cc12,inactive,
COc1ccc(CCNC(=O)c2cnc3sc(N4CCC(C)CC4)nn3c2=O)cc1OC,active: 3.66 µM,
CC(=O)Nc1ccc(S(=O)(=O)NCc2ccc(C(=O)NCc3ccc(Cl)cc3)cc2)cc1,,inconclusive: -30.3% [inhibitor] and inconclusive: -31.6% [inhibitor]
CC(C)c1ccc(NC(=O)C2(C)Cc3c(-c4cccc(C(F)(F)F)c4)ccnc3O2)cc1 (centres undefined),"inconclusive [inhibitor, single point]",
COC(=O)C(Cc1ccc(OC(=O)c2ccc(Cl)cc2)cc1)N1Cc2ccccc2C1=O (centres undefined),"inconclusive [inhibitor, partial curve]",
O=C(Nc1cccc(C(=O)N2CCN(c3ccccc3F)CC2)c1)c1nsc2ccccc12,"inconclusive [inhibitor, single point]",
CN(Cc1ccccc1F)C(=O)c1cccc(NC(=O)CC2SC(N3CCCCC3)=NC2=O)c1 (centres undefined),active: 23.1 µM,
O=c1oc2ccccc2c(NCc2cccc(F)c2)c1[N+](=O)[O-],,inactive: -0.299%
CC1CCCC(C)N1/N=C/c1ccccc1C(=O)O (centres undefined),"inconclusive [inhibitor, single point]",
Cc1ccc(N(Cc2ccccc2)C(=O)c2ccc(Cl)c(S(=O)(=O)N3CCOCC3)c2)cc1,"inconclusive [inhibitor, single point]",
O=C(NCCC(=O)N1CCN(S(=O)(=O)c2ccccc2Cl)CC1)Nc1ccccc1,,inactive: -0.697%
CC(C)=CCc1c(O)c(CC=C(C)C)c2c(c1O)C(=O)CC(c1ccc(O)cc1)O2 (centres undefined),active: 18.4 µM,

Compound,Potency,"activity change, negative = growth inhibition"
COCCCNc1ncnc2sc3c(c12)CCC(C)C3 (centres undefined),active: 23.1 µM,
CCC(CC)Nc1ccc(C(CC(N)=O)NC(=O)Cc2ccc(Br)cc2)cc1[N+](=O)[O-] (centres undefined),"inconclusive [inhibitor, single point]",
Cc1cc(=O)n(Cc2ccccc2)c2ccccc12,"inconclusive [inhibitor, single point]",
Cn1cc(/C=C(\C#N)C(=O)Nc2ncc(Cc3ccc(Cl)cc3)s2)c2ccccc21,"inconclusive [inhibitor, partial curve]",
COC(=O)[C@H](Cc1ccccc1)NC(=O)N1CCN(Cc2ccccc2)CC1,active: 25.9 µM,
COc1ccc(CNC(=O)C(C)N(C)Cc2cccc(F)c2)cc1 (centres undefined),,inactive: -26%
C#CC[N+](CC)(CC)CC#Cc1ccccc1,active: 18.4 µM,
CCN(CC)CCN(Cc1cc2cc(C)ccc2[nH]c1=O)C(=S)Nc1ccccc1,"inconclusive [inhibitor, partial curve, poor fit]",
CCC1CCCCN1C(=O)CSc1n[nH]c(-c2ccccc2Cl)n1 (centres undefined),"inconclusive [inhibitor, single point]",
CC1=CN2C(=N)/C(=C/c3ccc(Sc4ccc(C)cc4)o3)C(=O)N=C2S1,"inconclusive [inhibitor, single point]",
COC(=O)CCc1sc(NC2CCCCC2)nc1-c1ccc(OC)cc1,active: 18.4 µM,
Cc1ccc(NC(=O)CCC(=O)c2cccs2)cc1F,,inactive: -18.4%
CC1CCN(C(=O)CNC(=O)CNS(=O)(=O)c2ccccc2)CC1,,inactive: -14.3%
Cc1ccc(-n2nnc3c(=O)n(Cc4cccc(C)c4)cnc32)cc1,"inconclusive [inhibitor, single point]",
Fc1cccc(Cl)c1CSc1ccc2nnc(-c3ccccn3)n2n1,"inconclusive [inhibitor, partial curve]",
Cc1cc(Cl)ccc1OCC(=O)N(Cc1ccco1)c1c(N)n(Cc2ccccc2)c(=O)[nH]c1=O,"inconclusive [inhibitor, single point]",
O=C(c1c(O)c2ccccc2oc1=O)C1CCCCC1,"inconclusive [inhibitor, single point]",
Cc1ccccc1NC(=O)C(NC1CCCCC1)C(C)C (centres undefined),,inactive: 4.4%
CCOC(=O)c1c(NC(=S)Nc2ccccc2)sc(C)c1C,"inconclusive [inhibitor, partial curve]",
CCOC(=O)c1c(NC(=O)CSc2nc3ccccc3c(=O)n2-c2ccccc2)sc(C(C)=O)c1C,,inactive: -9.24%
CSc1nc2ccc(N3C(=O)C4CCCCC4C3=O)cc2s1 (centres undefined),,inactive: -5.85%
O=C(CSC1=NCCN1)NC12CC3CC(CC(C3)C1)C2,active: 14.6 µM,
CC(C)(C)N1C(=O)c2ccc(C(=O)NCc3ccco3)cc2C1=O,"inconclusive [inhibitor, single point]",

Compound,Potency,"activity change, negative = growth inhibition"
COc1ccc(S(=O)(=O)N2CCC3CC2c2cc(N4CCOCC4)ccc23)cc1 (centres undefined),"inconclusive [inhibitor, single point]",
COc1ccccc1Cc1c(-c2cccc(Br)c2)nc2ccc(Br)cn12,"inconclusive [inhibitor, partial curve, poor fit]",
COc1ccc(S(=O)(=O)N2CCCCCC2)cc1C(=O)N1CCCC(C(F)(F)F)C1 (centres undefined),"inconclusive [inhibitor, partial curve]",
O=C(O)CC(c1ccc(F)cc1F)N1Cc2ccccc2C1=O (centres undefined),,inactive: 14.6%
CCOC(=O)c1c2c3c(c(Cl)ccc3[nH]c1=O)C(=O)c1ccccc1-2,"inconclusive [inhibitor, partial curve]",
CCCCNC(=S)NCc1ccc2[nH]c(C)cc2c1,"inconclusive [inhibitor, single point]",
Cc1ccc(Cn2c(CNS(=O)(=O)c3ccc(Cl)s3)nc3cccnc32)cc1,"inconclusive [inhibitor, single point]",
COc1ccccc1CNC(=O)C[C@@H]1C[C@H]2c3cc(N(C)C)ccc3O[C@H]2[C@H](CO)O1,"inconclusive [inhibitor, single point]",
O=C(CSc1n[nH]c(=O)n1Cc1ccco1)c1ccc2c(c1)OCCO2,,inactive: 1.35%
O=C(O)CSc1nc2ccccc2s1,,inactive: 16.4%
CCSc1ncc(Cl)c(C(=O)Nc2ccc(S(N)(=O)=O)cc2)n1,"inconclusive [inhibitor, partial curve]",
CCc1cccc(CC)c1C(OC(C)=O)c1cccnc1 (centres undefined),"inconclusive [inhibitor, single point]",
CCc1nnc(NC(=O)C2Cc3ccccc3CN2S(=O)(=O)c2cccs2)s1 (centres undefined),"inconclusive [inhibitor, single point]",
O=C(CN(c1ccccc1)S(=O)(=O)c1ccc(F)cc1)N1CCCCCC1,"inconclusive [inhibitor, partial curve, poor fit]",
CCc1c(C)sc(NC(=O)C2c3ccccc3Oc3ccccc32)c1C(=O)OC(C)C,,inactive: 0.406%
Cc1c([N+](=O)[O-])nnn1-c1cc(Cl)cc(Cl)c1,,inconclusive: -44.6% [inhibitor]
O=C(/C=C/c1ccc(O)c(O)c1)c1ccccc1O,"inconclusive [inhibitor, partial curve]",
CC(c1ccccc1)n1c(SCC(=O)N2CC(=O)Nc3ccccc32)nc2ccccc2c1=O (centres undefined),active: 20.6 µM,
COc1ccccc1-c1nnc(SCC(=O)Nc2cc(C)on2)o1,,inactive: 8.42%
Cc1ccc(NC(=O)c2nnn(-c3ccc4c(c3)OCCO4)c2N)cc1,"inconclusive [inhibitor, single point]",
Clc1ccc(Cl)c(OCCN2CCCC2)c1,,inactive: 9.84%
CCc1ccccc1Nc1cc(C(=O)NC2CCC(C)CC2)c2ccccc2n1 (centres undefined),"inconclusive [inhibitor, partial curve, poor fit]",
CCCC(=O)C1=C(O)C(C(=O)OC)C(C)(C)CC1=Nc1ccc(Br)cc1 (centres undefined),active: 23.1 µM,
